In PubChem BioAssay AID493014 (National Center for Advancing Translational Sciences (NCATS), 2011):
The campaign covered roughly 340,000 compounds. About 170 (0.05%) were called active. Roughly 26% stayed inconclusive and do not appear here. The call rests on the fitted dose curve; in most records, active means well fitted inhibition curve with a large enough effect in the signal ratio, with a control signal flat (not every such curve was filed as active); inconclusive means small, poorly fitted or top-dose-only effect, or effect the other way, or a change in a side signal; inactive means flat fitted curve, though single readings scatter; the % refers to the signal ratio. Only a part is listed here, and it is no random draw.

assay: qHTS Assay to Find Inhibitors of Chronic Active B-Cell Receptor Signaling; conditions: ABC-DLBCL IkBa-CBG/CBR reporter, luminescence ratio (green luciferase fused to IkBa over red control in TMD8 lymphoma cells), 4 h; series mostly up to 46.1 µM; activity change, negative = inhibition: at the top concentration;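 on activity change, negative = inhibition: plate controls were basal doxycycline-induced cells for no effect and cells given 10 µM MG132 for full effect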
Method in brief: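 Doxycycline induced both beetle luciferases in TMD8 lymphoma cells; IKK-driven degradation limits the IkappaBalpha-fused green signal, while red luminescence normalises for cell number and nonspecific effects. Compounds tested up to 46 uM, 4 hrs.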
Potency means the concentration at half of the fitted maximal effect.

SMILES	activity change, negative = inhibition	Potency
Cc1ccsc1/C=C1/SC(N2CC(C)OC(C)C2)=NC1=O (configuration not stated)	inactive: -4.55%	
COc1ccc(NC(=O)CN2C(=O)c3ccccc3Sc3ccc(C(=O)N4CCOCC4)cc32)c(OC)c1	inactive: -1.74%	
Cc1ccc2c(c1C)NC(C(=O)O)C1CC=CC21 (configuration not stated)	inactive: 19.8%	
C=CC[C@H](CC(=O)N(CCO)Cc1ccccc1)C(=O)NC[C@H](OC(=O)[C@@H](CC=C)CC(=O)OC(C)(C)C)c1ccccc1	inactive: -0.575%	
NC(=O)C1CCN(c2nc(-c3cccnc3)cs2)CC1	inactive: -2.04%	
C=CCC[C@H](Cc1ccc(F)cc1)C(=O)OC[C@H](Cc1c[nH]c2ccccc12)NC(=O)[C@@H](CC=C)CC(=O)NCCO	inactive: -6.36%	
CC1=C(CC(=O)O)c2cc(F)ccc2/C1=C/c1ccc(S(C)=O)cc1 (configuration not stated)	inactive: -4.54%	
COC(=O)C1=C(C)N(CC2CC2)C(=NCc2cccc(Cl)c2)N[C@H]1c1ccccc1	inactive: -1.44%	
O=C(O)C(Cc1c[nH]c2ccccc12)N1C(=O)C2C3c4ccccc4C(c4ccccc43)[C@@H]2C1=O (some centres not stated)	inactive: -1.25%	
NC(=S)n1[nH]c(-c2ccc([N+](=O)[O-])cc2)c(N=Nc2ccc(Cl)cc2)c1=O		active: 10 µM
C=CCC[C@H](Cc1ccc(F)cc1)C(=O)OC[C@H](Cc1c[nH]c2ccccc12)NC(=O)[C@H](CC=C)CC(=O)NCCO	inactive: -2.42%	
C[C@H](CO)N1C[C@H](C)[C@@H](CN(C)C(=O)Nc2ccccc2)Oc2ccc(NC(=O)CCN3CCOCC3)cc2C1=O	inactive: -0.51%	
O=C1OC[C@@H]2CCCN2C(=O)[C@H](CC(=O)N(CCO)Cc2ccccc2)C/C=C\CC[C@H]1Cc1ccc(F)cc1	inactive: 1.91%	
CCOC(=O)c1c(S(=O)(=O)N2CCCC(C(=O)Nc3ncccc3C)C2)c(C)n(C)c1C (configuration not stated)	inactive: 11.9%	
CCOC(=O)C1=C(C)N=C2SCCC(=O)N2[C@@H]1c1cccs1	inactive: 9.36%	
CCC1CCCCN1CCCNC(=O)CN1C(=O)CSc2ccc(S(=O)(=O)N3CCC(C)CC3)cc21 (configuration not stated)	inactive: -2.84%	
O=C1N[C@@H](Cc2c[nH]c3ccccc23)COC(=O)[C@H](Cc2ccc(F)cc2)C/C=C\C[C@@H]1CC(=O)N(CCO)Cc1ccccc1	inactive: -3.2%	
OCC[C@H]1C[C@H](O)[C@@H](O)[C@@]2(CCc3ccccc3CO2)O1	inactive: -1.87%	
c1cnc(N2CCN(Cc3ccc4c(c3)OCO4)CC2)nc1		inactive
CN1CCN(C(=O)C2=C[C@H](c3ccc4c(c3)OCO4)C[C@H](OCc3ccc(CO)cc3)O2)CC1	inactive: 1.52%	
COCCCNC(=O)c1ccc2c(c1)nc(C)n2-c1cccc(C)c1	inactive: -14.6%	
CN(C)c1ccnc2c[cH-]cc12.[Fe].c1ccc(-[c-]2[c-](-c3ccccc3)[c-](-c3ccccc3)[c-](-c3ccccc3)[c-]2-c2ccccc2)cc1 (configuration not stated)	inactive: -2.37%	
